Assay results taken from PMC12014562.
No constants are given. Whether binding was seen depends on the method and setting. Some binding calls cover weakened binding; strength is not graded here. Tags and fused reporters may be left off the sequences shown.

T1: Sll0528 fused to the T18 fragment of adenylate cyclase CyaA (bacterial two-hybrid) (Synechocystis sp. PCC 6803) (UniProt Q55518)
T1 sequence: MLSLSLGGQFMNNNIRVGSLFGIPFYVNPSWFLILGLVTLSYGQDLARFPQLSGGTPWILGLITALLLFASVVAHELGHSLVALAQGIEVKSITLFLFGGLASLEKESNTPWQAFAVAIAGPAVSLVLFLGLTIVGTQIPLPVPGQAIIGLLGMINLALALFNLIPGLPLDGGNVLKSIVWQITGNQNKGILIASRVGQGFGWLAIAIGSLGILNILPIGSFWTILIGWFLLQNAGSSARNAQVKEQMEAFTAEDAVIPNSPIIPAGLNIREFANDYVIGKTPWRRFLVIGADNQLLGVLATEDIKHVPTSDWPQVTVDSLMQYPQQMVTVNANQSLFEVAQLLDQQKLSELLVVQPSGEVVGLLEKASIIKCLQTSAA

B1: transcription factor RbcR (Sll0998) fused to the T25 fragment of CyaA (bacterial two-hybrid) (protein, UniProt P73123 1-345)
chain: MSDIPFTLDQLRILKAIASEGSFKRAADTLYVSQPAVSLQVQNLEKQLSVPLFDRGGRKAQLTEAGHLLLNYGEKIITLCQETCRAIEDLQNLQGGTLIVGASQTTGTYLLPRMIGMFRQQYPDVTVQLQVHSTRRTAWGVANGQVDLAIIGGEVPAELQETLTVLPYAEDELALILPVLHPLAQAETIQKEDLYKLKFISLDSQSTIRKVIDKVLSQGEIDTKRLKIEMELNSIEAIKNAVQSGLGAAFVSTTAIEKELEMNVLHIAPIKNVEIRRVLSVIINPNRYRSKASAAFIREVLPQFSTHPDALDPERLFANPYSSNNGDRQGDGKDGKGSIEIDSVT
B2: unknown protein Ssl1972 fused to the T25 fragment of CyaA (bacterial two-hybrid) (protein, UniProt P72925 1-93)
chain: MISIDLTLKYSPMPVSVQRKEKDGAEALYQTIVTAMQGDRPQVLELTCEKQTEKKVAIMSDQISAVIVSEKDGAASAGKVPGFAALGQIVNQG
B3: nucleoid-associated protein ebfC (Slr1847) fused to the T25 fragment of CyaA (bacterial two-hybrid) (protein, UniProt P73057 1-114)
chain: MAQGKGFGFGLGKIKELQEAFQKAQQVQEGAKVLQEELERMEIPGKSADGLVTVLMSGNQEPLSIEIDPSALEKGAEGLSASVTEAMKAAYAESTETMRSKMEELTSGLNLPGM
B4: signal recognition particle protein Slr1531 fused to the T25 fragment of CyaA (bacterial two-hybrid) (protein, UniProt P74214 1-482)
chain: MFDALADRLEDAWKKLRGQDKISESNIKEALQEVRRALLAADVNLQVVKGFIKDVEQKALGADVISGVNPGQQFIKIVYDELVNLMGESNVPLAQAEQAPTVILMAGLQGTGKTTATAKLALYLRKQKRSALMVATDVYRPAAIDQLKTLGQQIDVPVFDLGSDANPVEIARQGVEKAKELGVDTVLIDTAGRLQIDPQMMAELAEIKQVVKPDDTLLVVDAMTGQEAANLTHTFHEQIGITGAILTKLDGDTRGGAALSVRQISGQPIKFVGVGEKVEALQPFYPDRLASRILNMGDVLTLVEKAQEAIDVGDVEKLQNKILEATFDFDDFIKQMRFMKNMGSLGGLLKMIPGMNKLSSGDIEKGEKELKRTEAMISSMTTEERKNPDLLAKSPSRRRRIAQGSGHSETDVSKLITNFTKMRTMMQQMGMGGMPGGMPGMGAMPGMGGGMFGGQPGPGFRGYRGGGGKPKKKKKKKGFGQL
B5: probable Clp protease subunit Slr0165 fused to the T25 fragment of CyaA (bacterial two-hybrid) (protein, UniProt P74467 1-202)
chain: MPIGVPSVPFRLPGSQYERWIDIYTRLSQERIIFLGQEVNDSIANRIVAFLLYLDSDDPSKPIYLYINSPGGSVTAGMAIYDTMQYIKAEVITICVGLAASMGAFLLASGAPGKRLALPHARIMIHQPMGGTGRRQATDIDIEAREILRIRQQLNEIMAQRTGQTVEKIAKDTDRDYFLSAAEAKEYGLIDKVIENSTMGNN
B6: zinc metalloprotease FtsH (Sll1463) fused to the T25 fragment of CyaA (bacterial two-hybrid) (protein, UniProt P73437 1-628)
chain: MAIKPQPQWQRRLASVLLWGSTIYLLVNLLAPALFRSQPPQVPYSLFIDQVEGDKVASVYVGQNEIRYQLKPEAEDEGKEKAAEGQILRTTPIFDLELPKRLEAKGIEFAAAPPAKNSWFGTLLSWVIPPLIFVGIWSFFLNRNNNGAPGGALAFTKSKAKVYVEGDSTKVTFDDVAGVEEAKTELSEVVDFLKFPQRYTALGAKIPKGVLLVGPPGTGKTLLAKAAAGEAGVPFFIISGSEFVELFVGAGAARVRDLFEQAKKQAPCIVFIDELDAIGKSRASGAFMGGNDEREQTLNQLLTEMDGFSAAGATVIVLAATNRPETLDPALLRPGRFDRQVLVDRPDLAGRLKILEIYAKKIKLDKEVELKNIATRTPGFAGADLANLVNEAALLAARNKQDSVTEADFREAIERVVAGLEKKSRVLSDKEKKIVAYHEVGHALVGAVMPGGGQVAKISIVPRGMAALGYTLQMPTEDRFLLNESELRDQIATLLGGRAAEEIVFDSITTGAANDLQRATDLAEQMVTTYGMSKVLGPLAYDKGQQNNFLGQGMGNPRRMVSDDTAKEIDLEVKEIVEQGHNQALAILEHNRDLLEAIAEKILEKEVIEGEELHHLLGQVQAPGTLVV
B7: global nitrogen regulator NtcA (Sll1423) fused to the T25 fragment of CyaA (bacterial two-hybrid) (protein, UniProt P33779 1-225)
chain: MDQSLTQDRPLAAVFRRLGSELMPPVVETFDRSKTIFFPGDPAERVYFLLKGAVKLSRVYEAGEEITVALLRENSVFGVLSLVTGQRSDRFYHAVAFTPVELLSAPIEQVEQALKEHPDLSLLMLQGLSSRILQTEMMIETLAHRDMGSRLVSFLLILCRDFGVPAPDGIRIDLKLSHQAIAEAIGSTRVTVTRLLGDLREGNMISITKKKITVHNPVALSQQFT
B8: heat shock protein, molecular chaperone Hsp17 (Sll1514) fused to the T25 fragment of CyaA (bacterial two-hybrid) (protein, UniProt P72977 1-146)
chain: MSLILYNPLREMDNFQQQMNQLFEEVFVPTDRHGDRQGFNPKAELTETEEAYVLKLELPGMDPDNLDIQAARDAVTVSGDRQDTHSTEKDGVRRTEFRYGSFRRVIPVPGAIQNTEVKANYDAGILTLTLPKVEEAKNKVVKVQLS

Biological target: T1, Sll0528 fused to the T18 fragment of adenylate cyclase CyaA (bacterial two-hybrid) (Synechocystis sp. PCC 6803)
Assay: two-hybrid; bacterial two-hybrid (BACTH, adenylate cyclase T18/T25) in E. coli BTH101; T18 at the N- or C-terminus of Sll0528, T25 at the N- or C-terminus of the partner (four combinations); X-Gal reporter plates with IPTG, 2 days at 30°C; blue colonies are positive

**Q.** Which binding does the source give for B1 here?
**A.** Its binding is “binds”.

**Q.** For B2, which binding is on record?
**A.** The binding was “binds”.

**Q.** B3 was tested. Which binding did it give?
**A.** The binding was “binds”.

**Q.** With B4 as the binder, how does the binding read?
**A.** Its binding is “binds”.

**Q.** B5 was tested. Which binding did it give?
**A.** The binding was “binds”.

**Q.** With B6 as the binder, how does the binding read?
**A.** Its binding is “binds”.

**Q.** B7 was tested. Which binding did it give?
**A.** The binding was “binds”.

**Q.** Which binding does the source give for B8 here?
**A.** The binding was “no binding”.
